# According to the supplement of paper PMC6089552:
# Hit rate of the full screen: of about 3,200 compounds, about 300 (9.4%) showed activity. This is a selection; strong and weak results do not stand in their true shares.
# Tested on: A673/TR/shEF
# Assay: cell viability (LOESS-normalised, relative to median of negative controls) (log2 ratio); higher = more viable cells (less compound effect), active = hit call of the paper (over 3 MAD below the median)
# Details: treatment time: 72 h
# In short: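 A673/TR/shEF Ewing sarcoma cells (1,500 per well, 384-well plates) were grown with or without doxycycline to induce EWS-FLI1 shRNA knockdown, starting 24 h before compounds. Library compounds at two or more concentrations, with DMSO controls, were added for three days. Cell viability was read by CellTiter-Glo luminescence on an Envision reader, then LOESS-corrected per plate, divided by the median of negative controls and log2-transformed. Hits were wells at least three median absolute deviations from the median of all screened wells.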
# [1] = 0.25 µM, library screen: screen1, EWS-FLI1 expression: high (no doxycycline)
# [2] = 0.25 µM, library screen: screen1, EWS-FLI1 expression: low (doxycycline-induced shRNA knockdown)
# [3] = 2.5 µM, library screen: screen1, EWS-FLI1 expression: high (no doxycycline)
# [4] = 2.5 µM, library screen: screen1, EWS-FLI1 expression: low (doxycycline-induced shRNA knockdown)
# [5] = 0.103 µM, library screen: screen3, EWS-FLI1 expression: high (no doxycycline)
# [6] = 0.103 µM, library screen: screen3, EWS-FLI1 expression: low (doxycycline-induced shRNA knockdown)
# [7] = 0.25 µM, library screen: screen2, EWS-FLI1 expression: high (no doxycycline)
# [8] = 0.25 µM, library screen: screen2, EWS-FLI1 expression: low (doxycycline-induced shRNA knockdown)
# [9] = 0.308 µM, library screen: screen3, EWS-FLI1 expression: high (no doxycycline)
# [10] = 0.308 µM, library screen: screen3, EWS-FLI1 expression: low (doxycycline-induced shRNA knockdown)
# [11] = 0.926 µM, library screen: screen3, EWS-FLI1 expression: high (no doxycycline)
# [12] = 0.926 µM, library screen: screen3, EWS-FLI1 expression: low (doxycycline-induced shRNA knockdown)
# [13] = 2.5 µM, library screen: screen2, EWS-FLI1 expression: high (no doxycycline)
# [14] = 2.5 µM, library screen: screen2, EWS-FLI1 expression: low (doxycycline-induced shRNA knockdown)
# [15] = 2.8 µM, library screen: screen3, EWS-FLI1 expression: high (no doxycycline)
# [16] = 2.8 µM, library screen: screen3, EWS-FLI1 expression: low (doxycycline-induced shRNA knockdown)
# [17] = 8.3 µM, library screen: screen3, EWS-FLI1 expression: high (no doxycycline)
# [18] = 8.3 µM, library screen: screen3, EWS-FLI1 expression: low (doxycycline-induced shRNA knockdown)
# [19] = 25 µM, library screen: screen3, EWS-FLI1 expression: high (no doxycycline)
# [20] = 25 µM, library screen: screen3, EWS-FLI1 expression: low (doxycycline-induced shRNA knockdown)
compound,measurement,setting,value
NC(=O)c1ccccc1O,cell viability (log2),[1],inactive: 0.141
same,cell viability (log2),[2],inactive: 0.134
same,cell viability (log2),[3],inactive: 0.156
same,cell viability (log2),[4],inactive: 0.19
COc1ccc(OC)c(CN2CCN(Cc3cccnc3)CC2)c1,cell viability (log2),[1],inactive: 0.114
same,cell viability (log2),[2],inactive: 0.038
same,cell viability (log2),[3],inactive: 0.0976
same,cell viability (log2),[4],inactive: -0.0472
CCOC(=O)N1CCC(=C2c3ccc(Cl)cc3CCc3cccnc32)CC1,cell viability (log2),[5],inactive: 0.0636
same,cell viability (log2),[6],inactive: 0.0767
same,cell viability (log2),[1],inactive: 0.0808
same,cell viability (log2),[2],inactive: 0.1
same,cell viability (log2),[7],inactive: 0.133
same,cell viability (log2),[8],inactive: 0.129
same,cell viability (log2),[9],inactive: 0.0192
same,cell viability (log2),[10],inactive: 0.0882
same,cell viability (log2),[11],inactive: 0.0803
same,cell viability (log2),[12],inactive: 0.0805
same,cell viability (log2),[3],inactive: 0.114
same,cell viability (log2),[4],inactive: 0.057
same,cell viability (log2),[13],inactive: 0.112
same,cell viability (log2),[14],inactive: 0.0012
same,cell viability (log2),[15],inactive: 0.112
same,cell viability (log2),[16],inactive: 0.0258
same,cell viability (log2),[17],inactive: 0.0723
same,cell viability (log2),[18],inactive: 0.0616
same,cell viability (log2),[19],inactive: 0.0441
same,cell viability (log2),[20],inactive: 0.0227
Nc1nc(F)nc2c1ncn2[C@@H]1O[C@H](COP(=O)(O)O)[C@@H](O)[C@@H]1O,cell viability (log2),[5],inactive: -0.0279
same,cell viability (log2),[6],inactive: -0.000356
same,cell viability (log2),[9],inactive: 0.0256
same,cell viability (log2),[10],inactive: 0.153
same,cell viability (log2),[11],inactive: 0.075
same,cell viability (log2),[12],inactive: 0.0953
same,cell viability (log2),[15],inactive: -0.0277
same,cell viability (log2),[16],inactive: 0.0929
same,cell viability (log2),[17],inactive: 0.103
same,cell viability (log2),[18],inactive: 0.0436
same,cell viability (log2),[19],inactive: 0.0709
same,cell viability (log2),[20],inactive: 0.0764
COc1ccc(-c2coc3cc(O)ccc3c2=O)cc1,cell viability (log2),[1],active: -0.6
same,cell viability (log2),[2],inactive: 0.0672
same,cell viability (log2),[3],inactive: 0.234
same,cell viability (log2),[4],inactive: 0.103
N.N.N.N.N.O.[Ru+2],cell viability (log2),[7],inactive: 0.216
same,cell viability (log2),[8],inactive: 0.0909
same,cell viability (log2),[13],inactive: 0.256
same,cell viability (log2),[14],inactive: 0.0639
C[C@@H](Oc1ccccc1)C(=O)N[C@@H]1C(=O)N2[C@@H]1SC(C)(C)[C@@H]2C(=O)O,cell viability (log2),[1],inactive: 0.0816
same,cell viability (log2),[2],inactive: 0.0301
same,cell viability (log2),[3],inactive: 0.188
same,cell viability (log2),[4],inactive: 0.189
C=C1C2CC[C@@]3(C)[C@H](c4ccoc4)OC(=O)C[C@]13O[C@H]1C[C@H](OC(C)=O)C(C)(C)[C@H](CC(=O)OC)[C@@]21C,cell viability (log2),[1],inactive: 0.122
same,cell viability (log2),[2],inactive: 0.0225
same,cell viability (log2),[3],inactive: 0.146
same,cell viability (log2),[4],inactive: 0.192
Oc1c(Br)cc(Br)c2cccnc12,cell viability (log2),[1],inactive: 0.0596
same,cell viability (log2),[2],inactive: 0.131
same,cell viability (log2),[3],inactive: 0.0179
same,cell viability (log2),[4],inactive: -0.646
CCC(=O)O[C@H]1CC[C@H]2[C@@H]3CCc4cc(O)ccc4[C@H]3CC[C@]12C,cell viability (log2),[1],inactive: 0.0933
same,cell viability (log2),[2],inactive: 0.137
same,cell viability (log2),[3],inactive: 0.162
same,cell viability (log2),[4],inactive: 0.0928
CC(C)C[C@H](NC(=O)[C@H](Cc1ccccc1)NC(=O)c1cnccn1)B(O)O,cell viability (log2),[5],active: -0.242
same,cell viability (log2),[9],active: -2.56
same,cell viability (log2),[10],active: -0.914
same,cell viability (log2),[11],active: -3.95
same,cell viability (log2),[12],active: -1.75
same,cell viability (log2),[15],active: -4.24
same,cell viability (log2),[16],active: -4.06
same,cell viability (log2),[17],active: -4.26
same,cell viability (log2),[18],active: -3.84
same,cell viability (log2),[19],active: -4.26
same,cell viability (log2),[20],active: -4.16
O=C(OCCN1CCOCC1)C1(c2ccccc2)CCCCC1,cell viability (log2),[7],inactive: 0.05
same,cell viability (log2),[8],inactive: 0.0784
same,cell viability (log2),[13],inactive: 0.12
same,cell viability (log2),[14],inactive: 0.156
COc1ccc(CC(C)NCC(O)c2ccc(O)c(NC=O)c2)cc1 (stereo unspecified),cell viability (log2),[7],inactive: 0.238
same,cell viability (log2),[8],inactive: 0.0619
same,cell viability (log2),[13],inactive: 0.163
same,cell viability (log2),[14],inactive: 0.0459
COC(=O)C(O)[C@H]1C(C)(C)[C@@H](OC(C)=O)[C@@H]2CC3=C4CC(=O)O[C@@H](c5ccoc5)[C@]4(C)CCC3[C@@]1(C)C2=O (stereo partly specified),cell viability (log2),[1],inactive: 0.11
same,cell viability (log2),[2],inactive: 0.119
same,cell viability (log2),[3],inactive: 0.15
same,cell viability (log2),[4],inactive: 0.0885
c1ccc([C@@H]2CCC[C@@H]2NC2=NCCCCCCCCCCC2)cc1,cell viability (log2),[7],inactive: 0.117
same,cell viability (log2),[8],inactive: 0.0677
same,cell viability (log2),[13],inactive: 0.18
same,cell viability (log2),[14],inactive: 0.156
C[C@H](N[C@@H](CCc1ccccc1)C(=O)O)C(=O)N1CCC[C@H]1C(=O)O,cell viability (log2),[5],inactive: 0.0689
same,cell viability (log2),[6],inactive: 0.0524
same,cell viability (log2),[9],inactive: 0.0142
same,cell viability (log2),[10],inactive: 0.0116
same,cell viability (log2),[11],inactive: 0.0648
same,cell viability (log2),[12],inactive: 0.0211
same,cell viability (log2),[15],inactive: 0.0542
same,cell viability (log2),[16],inactive: 0.0458
same,cell viability (log2),[17],inactive: 0.0356
same,cell viability (log2),[18],inactive: 0.065
same,cell viability (log2),[19],inactive: 0.137
same,cell viability (log2),[20],inactive: 0.0987
O=C(O)c1ccc(OC2CSC2)cc1,cell viability (log2),[1],inactive: -0.0489
same,cell viability (log2),[2],inactive: 0.0317
same,cell viability (log2),[3],inactive: 0.0805
same,cell viability (log2),[4],inactive: 0.0727
O=S(=O)(O)C1CCNCC1,cell viability (log2),[7],inactive: 0.301
same,cell viability (log2),[8],inactive: 0.132
same,cell viability (log2),[13],inactive: 0.235
same,cell viability (log2),[14],inactive: 0.104
